Assay results from paper PMC10449733 (EJNMMI Physics, 2023).
Like-named read-outs stand apart in the source and are kept apart here.

Key:
[1] = cited from earlier work; for BMAX compartment 2 (maximum binding capacity, spleen) / BMAX compartment 3 (maximum binding capacity, kidney) / BMAX compartment 4 (maximum binding capacity, tumor) / BMAX compartment 5 (maximum binding capacity, SSTR-expressing organs): SSTR receptor expression; for k15 (uptake rate blood to other SSTR-expressing organs) / k16 (rate blood to rest compartment): assumed similar for both agents
Text: (§1) All model parameters were fixed, since our single-time-point data were limited to estimate PK parameters, and most parameters were based on the previously developed PBPK model.

[2] = patients receiving an amino acid solution during administration; cited from earlier work
[3] = Semi-physiological population PK model (six-compartment NLMEM, NONMEM) informed by patient imaging data; format: in vivo, human
Description: Using this approach, differences in population PK parameters between both radiopharmaceuticals were determined. First, a population PK model of [^68Ga]Ga-HA-DOTATATE was developed fully informed by a previously developed PBPK model. Subsequently, the model structure was applied to [^177Lu]Lu-HA-DOTATATE and parameters describing differences between both radiopharmaceuticals were estimated.
The first step of our approach was to develop a semi-physiological model for [^68Ga]Ga-HA-DOTATATE. Structural model development was informed based on a previously published PBPK model, where compartments were lumped based on their SSTR-expressing nature. […] Compartment five consisted of the lungs, pancreas, stomach, thyroid and liver. Structural model parameters were based on estimates from a previously published PBPK model. Organ volumes were fixed for all patients and derived from the ICRP Publication 89 adult human model. The tumor compartment volume was based on individual measured tumor volumes and consisted of the sum of volumes of all segmented tumors (based on).
The stochastic or statistical model accounted for inter-individual variability (IIV) and residual unexplained variability. For [^68Ga]Ga-HA-DOTATATE, IIV was added to uptake rate parameters. IIV was fixed based on assumed population variability, using information from ranges included in the previously developed PBPK model, assumed variability in uptake in organs and tumors based on clinical observations and estimated IIV in previously published population PK models for radiolabeled SSAs. IIV was modeled using an exponential distribution according to Eq. 2, while a proportional error model described the residual error according to Eq. 3.2 Pi=Ppop∗e^ηi 3 Cobs,ij=Cpred,ij∗(1+εp,ij) where Pi represents the individual PK parameter, Ppop represents the population PK parameter, and ηi represents the IIV effect for the ith individual with mean 0 and variance ω^2. Cobs represents the observed concentration and Cpred the predicted concentration for the ith individual and the jth measurement, and εp the proportional error with mean 0 and variance σ^2 for the ith individual and the jth measurement.
Factors known to affect PK parameters were added to the model a priori, since model development was based on fixed parameters rather than estimated based on data. Radiopharmaceutical distribution in NET patients might be impacted by a tumor sink effect, which reflects a reduced uptake in healthy tissues due to a high burden of disease. Therefore, the tumor sink effect was included in the model following Eq. 4, where the extent of this effect was based on previous PBPK simulations. In addition, a larger tumor volume is expected to increase tumor uptake, as was also shown for [^68Ga]Ga-PSMA-11 [34].
as §1, with “A bottom-up approach was used for [^68Ga]Ga-HA-DOTATATE model development and patient imaging data were only used for model evaluation. All” for “All”

[4] = Observed tumor and kidney AUC from post-administration imaging (planar scintigraphy, SPECT/CT); format: in vivo, human; settings: 0 to last measurement, four post-administration images, first cycle ~7.4 GBq
Description: Diagnostic PET/CT imaging was performed at ~45 min post-injection of ~100 MBq [^68Ga]Ga-HA-DOTATATE. […] Patient selection, data acquisition and data analysis were described previously. Individual accumulation data for spleen, kidneys and tumor lesions were available, whereas no blood samples were drawn. For tumors, only lesions with a diameter >2 cm and a maximum of five segmented lesions of which two per organ system per patient (i.e., target tumors) were included for model development. […] All tumor volumes were determined based on PET/CT imaging using IntelliSpace Portal (Philips Healthcare, The Netherlands) with a semi-automatic threshold segmentation method of 50% SUVmax. Decay corrected peptide concentrations (µg/L) were used for model development and evaluation, which were calculated based on the measured radioactivity per volume and the administered specific activities (MBq/µg) (using total administered peptide amounts).

[5] = Observed tumor and kidney absorbed dose (MIRD formalism); format: in vivo, human; settings: first cycle ~7.4 GBq
Description: Absorbed doses for kidney and tumor were determined to evaluate the predicted energy deposited in the irradiated tissue. For this, time-integrated activity (TIA) (MBq*h) was determined using calculated AUCs (µg*h/L) in kidney and tumors, organ and tumor volumes (L) and injected specific activity (MBq/µg). The TIA was extrapolated to infinite time based on the calculated excretion rate per individual. After this, absorbed doses were calculated following the Medical Internal Radiation Dose (MIRD) formalism. Organ weights that were used for absorbed dose calculations were based on the ICRP Publication 89 adult male human model and corresponding S values were derived from IDAC-Dose 2.1 [27, 39]. For tumors, individual tumor volumes and a tissue density of 1.05 g/cm^3 were used to determine the corresponding S value.

[6] = population value from the estimated fold difference vs [^68Ga]Ga-HA-DOTATATE, nine NET patients
[7] = patient ID3, TIA extrapolated to infinite time
[8] = patient ID4, TIA extrapolated to infinite time
[9] = patient ID5, TIA extrapolated to infinite time
[10] = patient ID6, TIA extrapolated to infinite time
[11] = patient ID7, TIA extrapolated to infinite time
[12] = patient ID8, TIA extrapolated to infinite time
[13] = patient ID9, TIA extrapolated to infinite time
[14] = patient ID10, TIA extrapolated to infinite time

[^68Ga]Ga-HA-DOTATATE
BMAX compartment 2 (maximum binding capacity, spleen) ([1]; fixed): 16.7 nmol/L
BMAX compartment 3 (maximum binding capacity, kidney) ([1]; fixed): 6.7 nmol/L
BMAX compartment 4 (maximum binding capacity, tumor) ([1]; fixed): 30 nmol/L
BMAX compartment 5 (maximum binding capacity, SSTR-expressing organs) ([1]; fixed): 2.4 nmol/L
k10 (renal excretion rate constant) ([1]; fixed parameter, NET patients, no kidney protection): 0.25 h⁻¹
k12 (uptake rate blood to spleen) ([1]; fixed population parameter): 0.21 h⁻¹
k13 (uptake rate blood to kidney) ([1]; fixed population parameter): 0.22 h⁻¹
k14 (uptake rate blood to tumor) ([1]; fixed population parameter): 0.11 h⁻¹
k15 (uptake rate blood to other SSTR-expressing organs) ([1]; fixed): 2.5 h⁻¹
k16 (rate blood to rest compartment) ([1]; fixed): 1 h⁻¹
Fraction unbound in plasma ([1]; fixed): 0.69
k20 (degradation rate constant, spleen) ([1]; fixed): 0.01 h⁻¹
k30 (degradation rate constant, kidney) ([1]; fixed): 0.01 h⁻¹
k40 (degradation rate constant, tumor) ([1]; fixed): 0.01 h⁻¹
k50 (degradation rate constant, SSTR-expressing compartment) ([1]; fixed): 0.01 h⁻¹
k60 (degradation rate constant, rest compartment) ([1]; fixed): 0.01 h⁻¹
Structural effect of tumor volume on k14 ([1]; power exponent eff of Eq. 5, fixed): 1

[^177Lu]Lu-DOTATATE
clearance [2]: 2.3 L/h

[^177Lu]Lu-HA-DOTATATE
k13 (uptake rate blood to kidney) ([3]; population value from the estimated fold difference vs [^68Ga]Ga-HA-DOTATATE, first kidney time point excluded, amino acid co-infusion): 0.107 h⁻¹
k14 (uptake rate blood to tumor) [3, 6]: 0.157 h⁻¹
k40 (degradation rate constant, tumor) [3, 6]: 0.00375 h⁻¹
k12 (uptake rate blood to spleen) ([3]; population value from the estimated fold difference vs [^68Ga]Ga-HA-DOTATATE, nine NET patients, four imaging time points): 0.0607 h⁻¹
Structural effect of tumor volume on k14 ([3]; power exponent eff of Eq. 5, estimated from nine NET patients, RSE% in brackets): 0.67 (17%)
Tumor AUC0-tlast, observed ([4]; patient ID2): 3320 ng·h/mL
Kidney AUC0-tlast, observed ([4]; patient ID3): 520 ng·h/mL
Tumor AUC0-tlast, observed ([4]; patient ID3): 2090 ng·h/mL
Kidney AUC0-tlast, observed ([4]; patient ID4): 634 ng·h/mL
Tumor AUC0-tlast, observed ([4]; patient ID4): 5290 ng·h/mL
Kidney AUC0-tlast, observed ([4]; patient ID5): 334 ng·h/mL
Tumor AUC0-tlast, observed ([4]; patient ID5): 4690 ng·h/mL
Kidney AUC0-tlast, observed ([4]; patient ID6): 902 ng·h/mL
Tumor AUC0-tlast, observed ([4]; patient ID6): 1380 ng·h/mL
Kidney AUC0-tlast, observed ([4]; patient ID7): 564 ng·h/mL
Tumor AUC0-tlast, observed ([4]; patient ID7): 2800 ng·h/mL
Kidney AUC0-tlast, observed ([4]; patient ID8): 443 ng·h/mL
Tumor AUC0-tlast, observed ([4]; patient ID8): 2940 ng·h/mL
Kidney AUC0-tlast, observed ([4]; patient ID9): 764 ng·h/mL
Tumor AUC0-tlast, observed ([4]; patient ID9): 1760 ng·h/mL
Kidney AUC0-tlast, observed ([4]; patient ID10): 621 ng·h/mL
Tumor AUC0-tlast, observed ([4]; patient ID10): 2590 ng·h/mL
Tumor absorbed dose, observed ([5]; patient ID2, TIA extrapolated to infinite time): 24.4 Gy
Kidney absorbed dose, observed [5, 7]: 3.12 Gy
Tumor absorbed dose, observed [5, 7]: 14.4 Gy
Kidney absorbed dose, observed [5, 8]: 2.21 Gy
Tumor absorbed dose, observed [5, 8]: 29.3 Gy
Kidney absorbed dose, observed [5, 9]: 1.19 Gy
Tumor absorbed dose, observed [5, 9]: 38.3 Gy
Kidney absorbed dose, observed [5, 10]: 5.38 Gy
Tumor absorbed dose, observed [5, 10]: 8.67 Gy
Kidney absorbed dose, observed [5, 11]: 3.92 Gy
Tumor absorbed dose, observed [5, 11]: 34.4 Gy
Kidney absorbed dose, observed [5, 12]: 3.79 Gy
Tumor absorbed dose, observed [5, 12]: 19.5 Gy
Kidney absorbed dose, observed [5, 13]: 4.41 Gy
Tumor absorbed dose, observed [5, 13]: 12.4 Gy
Kidney absorbed dose, observed [5, 14]: 3.71 Gy
Tumor absorbed dose, observed [5, 14]: 27.7 Gy
BMAX compartment 2 (maximum binding capacity, spleen) ([1]; fixed): 16.7 nmol/L
BMAX compartment 3 (maximum binding capacity, kidney) ([1]; fixed): 6.7 nmol/L
BMAX compartment 4 (maximum binding capacity, tumor) ([1]; fixed): 30 nmol/L
BMAX compartment 5 (maximum binding capacity, SSTR-expressing organs) ([1]; fixed): 2.4 nmol/L
k10 (renal excretion rate constant) ([1]; fixed, based on a clearance value of 2.3 L/h, patients receiving amino acid solution): 0.575 h⁻¹
k15 (uptake rate blood to other SSTR-expressing organs) ([1]; fixed): 2.5 h⁻¹
k16 (rate blood to rest compartment) ([1]; fixed): 1 h⁻¹
Fraction unbound in plasma ([1]; fixed): 0.57
k20 (degradation rate constant, spleen) ([1]; fixed): 0.01 h⁻¹
k30 (degradation rate constant, kidney) ([1]; fixed): 0.01 h⁻¹
k50 (degradation rate constant, SSTR-expressing compartment) ([1]; fixed): 0.01 h⁻¹
k60 (degradation rate constant, rest compartment) ([1]; fixed): 0.01 h⁻¹
